Measurements taken from PubChem BioAssay (NCI).
Where “and” joins values, the source holds several entries; their conditions need not be identical. Equal values may be shown once.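 Interpolation was linear, between the two tested concentrations surrounding the appropriate level; five concentrations were tested over 48 hours in 96-well plates. Here, GI50 denotes the concentration required for 50% inhibition of growth. Definition used: TGI = concentration required for complete inhibition of growth.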 Square brackets hold non-standard residues; d marks the D form. Peptide text beside a SMILES is read from it. * marks the point of attachment. ξ: configuration not given here. NMeF = CN[C@@H](Cc1ccccc1)C(=O)O; NMeV = CN[C@H](C(=O)O)C(C)C; ξNMeN = CNC(CC(N)=O)C(=O)O; NMeA = CN[C@@H](C)C(=O)O; ξNMeV = CNC(C(=O)O)C(C)C; Boc = CC(C)(C)OC(=O)*

test system: NCI-H322M lung; experiment: NCI anticancer screen, dose series, 48 h

Row | Structure (SMILES) | TGI | GI50
1 | CSc1nc(NC2OC(COC(C)=O)C(OC(C)=O)C(OC(C)=O)C2OC(C)=O)c(N=CC=Nc2c(NC3OC(COC(C)=O)C(OC(C)=O)C(OC(C)=O)C3OC(C)=O)nc(SC)[nH]c2=O)c(=O)[nH]1 (stereo not given) | > 100 µM | –
2 | Cc1ccccc1NC(=O)C(=O)c1c(O)c2ccc(O)cc2oc1=O | > 100 µM | –
3 | Cc1ccc(C2CC(c3cccc([N+](=O)[O-])c3)=Nc3ccccc3S2)cc1 (stereo not given) | > 100 µM | –
4 | N#CC(C#N)=Cc1c[nH]c(=O)[nH]c1=O | > 100 µM | –
5 | COc1ccc(C(=O)c2sc3nc4c(cc3c2N)CCCC4)cc1OC | 21.6 µM | 6.35 µM
6 | O=C1OC2C=CCC1C2 (stereo not given) | > 100 µM | –
7 | N#CC(C/C=C/c1ccccc1)NNC(=O)c1c(Cl)c(Cl)c(Cl)c(Cl)c1-c1nc2ccc(C(=O)c3ccccc3)cc2[nH]1 (stereo not given) | > 100 µM | –
8 | O=C(NC(Cc1ccc(I)cc1)C(=O)O)c1cccc(Br)c1 (stereo not given) | > 100 µM | –
9 | CC1=CC2C(=O)N(c3ccccc3)C(=O)C2CC1n1[nH]c(=O)n(Cc2ccccc2)c1=O (stereo not given) | > 100 µM | –
10 | NC(Cc1ccccc1)P(=O)(O)O (stereo not given) | > 100 µM | –
11 | Nc1ccccc1Nc1ccccc1C(=O)[O-].Nc1ccccc1Nc1ccccc1C(=O)[O-].[Ni+2] | > 100 µM | > 100 µM
12 | Cc1[nH]c(=O)nc2nc3ccc(Cl)cc3c(N(CCO)CCO)c12 | > 100 µM | –
13 | CCCCNC(=O)c1cc(S(=O)(=O)n2cc[nH]c2=O)c(SC)cc1Cl | > 100 µM | –
14 | c1ccc2nc(N/N=C3\CCCCC3C3CCCCC3)ccc2c1 (stereo not given) | 30 µM | 8.42 µM
15 | COc1cccc2c1O/C(=C\c1ncc([N+](=O)[O-])n1C)C2=O | 17.4 µM | 3.37 µM
16 | O=c1c(=O)c2cscc2c1=O | > 25 µM | –
17 | O=c1oc2ccc(Cl)cc2c2ccccc12 | > 100 µM | –
18 | S=C(S)N1CCCCC1 | > 406 µM | 57.8 µM
19 | CC1OC(n2cc(Cl)c(=O)[nH]c2=O)C=C(OC(=O)c2ccccc2)C1=O (stereo not given) | > 100 µM | –
20 | [2H]c1nc(C)nc([2H])c1-c1cc(NC[C@@H](C)c2cccc3c(C(=O)NC)ccnc23)ncn1 | > 100 µM | > 100 µM
21 | CCCN1C/C(=C\c2ccc(O)c(OC)c2)C(=O)/C(=C/c2ccc(O)c(OC)c2)C1 | > 100 µM | > 100 µM
22 | COC(=O)C1=C(C=O)C2C=CC1C2 (stereo not given) | > 100 µM | –
23 | CCC(C)C(NC(=O)C(NC(=O)C(CC(N)=O)NC(=O)CN)C(C)O)C(=O)NC(C(=O)NC(C)C(=O)NC(C(=O)NC(CCC(=O)O)C(=O)NC(CC(C)C)C(=O)NC(CC(=O)O)C(=O)NC(C(=O)NC(Cc1ccc(O)cc1)C(=O)N1CCCC1C(=O)O)C(C)O)C(C)C)C(C)C (stereo not given) (H-GNTIVAVELDTYP-OH; configuration not given here) | > 50 µM | –
24 | COc1cc2c3c(n(CCCNC4=NCCS4)c(=O)c2cc1OC)-c1cc2c(cc1C3=O)OCO2 | 3.79 µM | 0.978 µM
25 | CC(=O)Nc1ccc(-c2nnc(SCC(=O)Nc3ccccc3)o2)cc1 | > 100 µM | –

Row | Structure (SMILES) | TGI | GI50
26 | Nc1c(C(=O)c2cccc(OC[C@@H](O)CO)c2)cnn1-c1ccc(F)cc1 | > 25 µM | > 25 µM
27 | C[N+](C)(CCNc1ccc(NCC[N+](C)(C)Cc2ccc([N+](=O)[O-])cc2)c2c1C(=O)c1ccccc1C2=O)Cc1ccc([N+](=O)[O-])cc1 | > 100 µM | –
28 | C=C1c2nc3ccccc3n2C=C(c2ccc(C)cc2)N1c1ccccc1 | > 100 µM | –
29 | O=C1Nc2c(Cl)cc(Cl)cc2C1=O | > 100 µM | –
30 | Nc1nc2cc(O)ccc2n2cc3c(F)cccc3c12 | > 100 µM | 3.92 µM
31 | Cn1cnc([N+](=O)[O-])c1Sc1nc2ccccc2s1 | 29.7 µM | –
32 | CC(=O)c1c(Nc2cccc(F)c2)[nH]c2c(Cl)cc(Cl)c(Cl)c2c1=O | > 100 µM | 0.355 µM
33 | CCOC(=O)[C@@H]1[C@@H]2NC(=O)N[C@@]1(C)Oc1ccccc12 | > 100 µM | –
34 | CCOC(=O)[C@H]1Nc2ccc(Cl)cc2[C@H]2CCC[C@@H]12 | > 100 µM | –
35 | N#CNCC(COCc1ccccc1)c1ccccc1 (stereo not given) | > 100 µM | –
36 | COc1cc(-c2nn(-c3cccc(NC(=O)Nc4cccc(C(F)(F)F)c4)c3)cc2-c2ccncc2)ccc1Cl | 6.92 µM | 1.36 µM
37 | O=C(NC(O)(C(F)(F)F)C(F)(F)F)c1ccccc1 | > 100 µM | –
38 | C[C@@H](O)CCC(=O)c1ccoc1 | > 100 µM | –
39 | Cc1csc2nc(-c3ccncc3)cn12 | > 100 µM | –
40 | COC[C@@H]1[C@H]2OC(C)(C)O[C@H]2C(=O)N1C(=O)c1ccc(OC)cc1 | > 100 µM | –
41 | CCN(CC)CC(O)CNc1c2ccc(Cl)cc2nc2ccc(OC)cc12 (stereo not given) | 2.43 µM | 0.508 µM
42 | O=C(CN(/C=C/C(=O)C(F)(F)F)c1ccc(Cl)cc1)c1ccc(F)cc1 | 46.5 µM | 13.1 µM
43 | CC1OC(O[C@H]2CC[C@]3(C)[C@H]4CC=C5[C@@H]6[C@@H](C)[C@H](C)CC[C@]6(C(=O)OC6OC(CO)C(O)C(O)C6O)CC[C@@]5(C(=O)O)[C@]4(C)CC[C@H]3C2(C)C)C(O)C(O)C1O (stereo not given in full) | > 100 µM | –
44 | O=[N+]([O-])c1ccc(C2CC(c3ccc(NCc4nc5ccccc5[nH]4)cc3)=NO2)cc1 (stereo not given) | > 100 µM | –
45 | CC1(C)Oc2ccccc2OC1O (stereo not given) | > 100 µM | –
46 | CCC1=CCN(c2ccc(C)cc2)OC1c1ccc(OC)cc1 (stereo not given) | > 100 µM | –
47 | CC/C=C/C(CC)C/C(C)=C\[C@]1(CC)C[C@H](CC)[C@H](CC(=O)O)OO1 (stereo not given in full) | 3.24 µM | –
48 | O=C(Cc1ccc(F)cc1)NC1=C(Cl)C(=O)c2ccccc2C1=O | > 75.7 µM | –
49 | COc1ccc(-c2nc(Sc3c([N+](=O)[O-])ncn3C)n[nH]2)cc1 | 53.5 µM | –
50 | COc1ccc(-c2ccc(-c3ccc(C(=N)N)c(F)c3)s2)cc1 | 2.35 µM | 0.847 µM

Row | Structure (SMILES) | TGI | GI50
51 | CC(=O)OC1C[C@@H](C)C2(CC(c3ccoc3)OC2=O)C2CCC(O)C3(CO3)C12CO (stereo not given in full) | > 100 µM | –
52 | CN(C)CCONC(=O)C12CC3CC(CC(C3)C1)C2 | > 100 µM | –
53 | Cc1nc2c(=O)[nH]ncc2[nH]1 | > 100 µM | –
54 | CNCCCNc1nc2ccccc2c2c(=O)c3cc(F)ccc3sc12 | 2.92 µM | 1.58 µM
55 | C[CH2][Sn]([CH2]C)([O]C(=O)c1c(F)cccc1F)[O][Sn]([CH2]C)([CH2]C)[O]C(=O)c1c(F)cccc1F | 45.1 µM | 19.8 µM
56 | O=C1C(C=NC(=S)c2ccccc2)=C(O)c2ccccc21 | > 100 µM | –
57 | COc1ccc(/C=C2\CCC(CN3CCOCC3)C2=O)cc1 (stereo not given) | 30.9 µM | –
58 | O=C(O)c1ccc(NCc2nc3cc(Cl)c(Cl)cc3[nH]2)cc1 | > 100 µM | > 100 µM
59 | O=c1ccccc(-c2ccc(Br)cc2)c1O | > 100 µM | 0.615 µM
60 | OC(COc1cccc2ccccc12)CN1CCOCC1 (stereo not given) | > 100 µM | –
61 | Nc1nc(Cl)c(N=Nc2ccc(Cl)cc2)c(NCC2(CO)CCC(CCc3ccccc3)C2)n1 (stereo not given) | 31.1 µM | –
62 | Cc1cc(=O)[nH]c(S(=O)(=O)NC(=S)Nc2ccc(Cl)cc2)n1 | > 100 µM | –
63 | CCC12C=CCN3CCC4(c5cc(C6(C(=O)OC)CCCCCc7c6[nH]c6ccccc76)c(OC)cc5N(C)C4C(O)(C(=O)OC)C1OC(C)=O)C32 (stereo not given) | 15.9 µM | –
64 | CC12CCC([C@H](Nc3cc(C(F)(F)F)cc(C(F)(F)F)c3)C1=O)C2(C)C (stereo not given in full) | > 100 µM | –
65 | O=C1C=C(Nc2ccc(Br)cc2)c2ccccc2C1=O | 27.4 µM | –
66 | O=C1C=CC2(O)OC/C(=C\c3ccccc3)C(O)=C2C1=O (stereo not given) | 12.5 µM | 2.89 µM
67 | COc1ccc(/C=C2\COc3ccc(O)c(O)c3C2=O)cc1 | > 100 µM | 3.27 µM
68 | C=CCc1cccc2cc(C(=O)NC3CCCCC3)c(=N)oc12 | 40.8 µM | –
69 | S=C(Nc1ccccc1)c1ccc(CN2CCCCC2)s1 | 97.5 µM | –
70 | N#CNC(=NCCO)NCCO | > 100 µM | –
71 | COC(=O)[C@H](C)N(C)C(=O)C(CC(N)=O)N(C)C(=O)[C@H](Cc1ccccc1)N(C)C(=O)[C@@H]1CCCN1C(=O)[C@H](C(C)C)N(C)C(=O)C(C(C)C)N(C)C(=O)[C@@H](NC(=O)OC(C)(C)C)C(C)C (stereo not given in full) (Boc-V[ξNMeV][NMeV]P[NMeF][ξNMeN][NMeA]-OMe) | > 75 µM | –
72 | CCCCOC(=O)CC(CC(=O)OCCCC)(OC(C)=O)C(=O)OCCCC | > 200 µM | –
73 | Nn1c(SCC(=O)O)nc2ccccc2c1=O | > 100 µM | –
74 | CCCCCCCCCCCCCCCCCCOP(=O)([O-])OCC[N+](C)(C)C | 17.4 µM | –
75 | O=C(NC(=S)Nc1ccc2c(c1)Sc1ccccc1O2)c1ccccc1 | > 100 µM | –

Row | Structure (SMILES) | TGI | GI50
76 | CSc1cc(-c2cc3ccccc3o2)oc(=O)c1C#N | > 100 µM | –
77 | O=C(Nc1ccc(Cl)cc1)Nc1ccc(Cl)c(C(F)(F)F)c1 | 14.5 µM | 3.47 µM
78 | Cn1cc(-c2csc(-c3c[nH]c4ccccc34)n2)c2cnccc21 | 6.5 µM | 2.53 µM
79 | COc1ccc(C2C=C(c3ccc(OC)c(OC)c3)N=C3SC=CN32)c(Br)c1 (stereo not given) | 25.1 µM | 10.7 µM
80 | COc1ccc2c(c1OC)-c1c(c3ccc([N+](=O)[O-])cc3c(=O)n1CCCN)C2=O | 11.8 µM | 4.93 µM
81 | CCC(C)NC(=S)N/N=C(\C)c1nc2ncccc2[nH]1 (stereo not given) | > 100 µM | –
82 | Cc1ccc(C(=O)Nc2ccc(S(=O)(=O)O)c3cc(S(=O)(=O)O)cc(S(=O)(=O)O)c23)cc1N | > 100 µM | –
83 | N/C(=N\N=C/c1c2ccccc2c(Cl)c2ccccc12)NO | 15.2 µM and 15.3 µM | 1.27 µM
84 | CN(C)CC/C(=N\Nc1ccc(Cl)cc1)c1ccccc1 | 15 µM | –
85 | CCCCCCCCCCCCCC(=O)NCO | > 100 µM | –
86 | CC(=O)N/C=C/c1cc(O)ccc1O | > 100 µM | –
87 | COC1=CC(=O)c2c(cc(COP(N)(=O)N(CCBr)CCBr)n2C)C1=O (stereo not given) | 4.73 µM | –
88 | COc1ccc(C(=O)/C=C/c2ccc(Oc3cc(C(=O)/C=C/c4ccc(O)cc4)c(O)cc3OC)cc2)c(O)c1 | > 100 µM | –
89 | Cc1cccc2c(NCCCN(C)C)c3c([N+](=O)[O-])ccc(C)c3nc12 | 1.23 µM | –
90 | CN1CCCC2[C@@H]3CCC4=C(O)C(=O)CC[C@]4(C)C3CC[C@@]21C (stereo not given in full) | > 100 µM | –
91 | COc1cc([C@@H]2c3cc4c(cc3[C@@H](OC3OC5CO[C@@H](c6cccs6)OC5C(O)C3O)[C@H]3COC(=O)[C@H]23)OCO4)cc(OC)c1O (stereo not given in full) | 16.3 µM | –
92 | O=c1c2ccccc2n2c(-c3ccc(O)cc3)nnc2n1-c1ccccc1 | 49.5 µM | –
93 | COC(=O)c1cnc(Cl)c([N+](=O)[O-])c1 | 28.5 µM | –
94 | O=C(CN1CCN(c2cccc(Cl)c2)CC1)N1CCc2c([nH]c3ccccc23)C1c1cccnc1 (stereo not given) | > 100 µM | –
95 | Cc1ccc(O)c(C2=CC3=NNC(=O)C3C(c3cccc(Br)c3)C2)c1 (stereo not given) | 41 µM | –
96 | COc1cc(/C=C/C(=O)c2ccccc2)cc(OC)c1OC | 30.1 µM | 15.4 µM
97 | COC(=O)C(Cc1ccc(OC)cc1O)NC(=O)OC(C)(C)C (stereo not given) | > 100 µM | –
98 | CCOC(=O)N1CCN(P(=O)(Nc2ccc3nc(NC(=O)OC)[nH]c3c2)Oc2ccccc2)CC1 (stereo not given) | > 100 µM | –
